The source gives no read counts; variants with many changes may rest on few reads.
B1: LINE1-mini (parent)
chain: GGCAGAGCUCAACACAGCGUGGCAAAGUGGCUGUGGCUAGACUGCC

Variants of: B1
Assay: self-cleavage, relative activity (ratio to wild type); higher = more cleavage; in vitro, sequencing; the parent is a self-cleaving ribozyme
GGCAGAGCUCAACACAGCCUGGUAAAGUGGAUGUGGAUAGACUGCA gave a self-cleavage of 0.02.
With GGCAGAGCUCAACACAGCCUGGCAAAGUGGCUGUGCCUUGACUGCC the self-cleavage was 0.02.
Variant GGCAGAGCUCAACACAGCAAGGCAAAGUGGCGGUAGUCAGACUGCA has a self-cleavage of 0.06.
GGCAGAGCUCAACACAGCAUGGCAAAGUGGCUGUAGAGAGAAUGCC showed a self-cleavage of 0.02.
GGCAGAGCUCAACACAGCAUGGCAAAGAGGCUGUGGCGAGACUGCC gave a self-cleavage of 0.02.
In the case of GGCAGAGCUCAACACAGCAUAGCAAAGUGGCUGUGGCUAGCCUGCC, the self-cleavage is reported as 0.16.
Variant GGCAGAGCUCAACACAGCAUGGCAAAGUGGCACUGGCUAGACUGCC has a self-cleavage of 0.03.
In the case of GGCAGAGCUCAACACAGCCUGGCAUAGUAGCGGUGGCUAGACUGCA, the self-cleavage is reported as 0.22.
For GGCAGAGCUCAACACAGCUUGGCGAAGUGGCUGUGGCCAGACUGCC, the self-cleavage was 0.55.
GGCAGAGCUCAACACAGCCUGGCAAAGUUGCUAUGGCUAGACUGCC gave a self-cleavage of 0.03.
GGCAGAGCUCAACACAGCCUGGCAAAGGGGGUGUGGCUAGACUGCC gave a self-cleavage of 0.17.
Work on GGCAGAGCUCAACACAGCUUGGCAUAGUGUCUGUGGCUAGACUGCC yielded a self-cleavage of 0.2.
For GGCAGAGCUCAACACAGCCUGGCAAAGUGGAUUUGGCUAGACUGCC, the self-cleavage was 0.07.
For GGCAGAGCUCAACACAGCCUGGCAAAGGGGCCGUGGCUAGACUGCC, the self-cleavage was 0.27.
With GGCAGAGCUCAACACAGCAUAGCAAUGUGGCUGUGGCUAAACUGCC the self-cleavage was 0.04.
GGCAGAGCUCAACACAGCAUAGCACCGUGGCUGUGGCUAGUCUGAC showed a self-cleavage of 0.11.
In the case of GGCAGAGCUCAACACAGCUUGGCGACGUGGCUGUGGCUAGACUGCC, the self-cleavage is reported as 0.72.
GGCAGAGCUCAACACAGCAUGGCAAAGUGGCUGUGGCUAGACAGAC gave a self-cleavage of 0.03.
Work on GGCAGAGCUCAACACAGCCUGGCAAAGUGGCUGUGGCUAAAAUGCC yielded a self-cleavage of 0.29.
GGCAGAGCUCAACACAGCCUGGGAAUGUAGCUGUGGCUAGACUGCC showed a self-cleavage of 2.69.
With GGCAGAGCUCAACACAGCCCGGCAAAGUGGCUGUGGCUACACUUCC the self-cleavage was 0.04.
GGCAGAGCUCAACACAGCCUGGCAAUGUCGCUGUGGCUAGACUGCC gave a self-cleavage of 0.29.
With GGCAGAGCUCAACACAGCUUGGCAACGUGGCUGUGGUUAGAGUGCC the self-cleavage was 0.02.
Work on GGCAGAGCUCAACACAGCCAGGCAAAGUGGCUGUGGCUAUACUGCC yielded a self-cleavage of 0.08.
Variant GGCAGAGCUCAACACAGCUUGGCAGAGUGGCUGUGGCUAGUCUGCA has a self-cleavage of 0.07.
For GGCAGAGCUCAACACAGCAUGACAAAGUGGCUGUGACUAGACUGCC, the self-cleavage was 0.06.
Work on GGCAGAGCUCAACACAGCCUGGCAAAGUGGCUGUAGCUAGAGUGCC yielded a self-cleavage of 0.07.
In the case of GGCAGAGCUCAACACAGCCGGGCAAUGUGGCUGUGGCUAGACUUCC, the self-cleavage is reported as 0.4.
For GGCAGAGCUCAACACAGCCUGGCAUAGUGGCGGUGGCUAGACUGCC, the self-cleavage was 0.21.
GGCAGAGCUCAACACAGCCUGGCAAAUUGGCUCUGGCUAGACUGCC showed a self-cleavage of 0.07.
In the case of GGCAGAGCUCAACACAGCCUGGCCAAGUGACUGUGGCUAGACUGCC, the self-cleavage is reported as 0.19.
GGCAGAGCUCAACACAGCCUGGCAGAGUAUCUGUGGCUAGACUGCC showed a self-cleavage of 0.31.
With GGCAGAGCUCAACACAGCUUGGCAUAGUGGGUGAGGCUAUCCUGCC the self-cleavage was 0.
With GGCAGAGCUCAACACAGCCUGGCAAUGUGGAUGUGUCUAGACUGCC the self-cleavage was 0.03.
Variant GGCAGAGCUCAACACAGCCUGGCAAAAUGGCUGUGGCUAGACUUCC has a self-cleavage of 0.26.
Variant GGCAGAGCUCAACACAGCCGGGAUAGGUGGCUGUGGCUAGACUGCC has a self-cleavage of 0.34.
For GGCAGAGCUCAACACAGCAAGGAAAAGUUGCUGGGGCUAGACUGCC, the self-cleavage was 0.13.
In the case of GGCAGAGCUCAACACAGCAUGGCAAAGUGGCUGCGGCUAGACUGUC, the self-cleavage is reported as 0.43.
Variant GGCAGAGCUCAACACAGCCUGGCAAAGGGGCUUUGGCUAGACUGCC has a self-cleavage of 0.28.
With GGCAGAGCUCAACACAGCCUGGCAAAGUGGCUGUAGCCACACUGCC the self-cleavage was 0.02.
GGCAGAGCUCAACACAGCAUGUCAACGUGGCUGUGGCUGGACUGCC gave a self-cleavage of 0.09.
GGCAGAGCUCAACACAGCCUGGCAAAUUGGAUGUGGCUAGACUGCC gave a self-cleavage of 1.08.
For GGCAGAGCUCAACACAGCAUGUCAAAGUGGCUUUGGCUAGACUUCC, the self-cleavage was 0.02.
Variant GGCAGAGCUCAACACAGCAUGGCAAAUUGGCUGGGGCUAGACAGCC has a self-cleavage of 0.01.
Variant GGCAGAGCUCAACACAGCCUAGCAAAGUGUCGGUGGCUAGACUGCC has a self-cleavage of 0.27.
Work on GGCAGAGCUCAACACAGCAUUGCAAAGUGGCUGUGGUUAGACUGCC yielded a self-cleavage of 0.19.
For GGCAGAGCUCAACACAGCUUGGCAGAGUGGCUGUGGCUAGACUGAC, the self-cleavage was 0.03.
Variant GGCAGAGCUCAACACAGCCUGGCAAAGUGGAUGUGGCUAGACUGCU has a self-cleavage of 0.91.
GGCAGAGCUCAACACAGCCUGGCAAAGUCGCUCUUGCUAGACUGCC gave a self-cleavage of 0.03.
Variant GGCAGAGCUCAACACAGCCUGGCUAAGUGGCGGUGGCUAGACUGAC has a self-cleavage of 0.12.
GGCAGAGCUCAACACAGCAUCGCAAAGUGGCGGUGGCUAGGCUGGC gave a self-cleavage of 0.
Work on GGCAGAGCUCAACACAGCCUGGCAAAGUGGCUUUGGAUAGACUGCC yielded a self-cleavage of 0.37.
GGCAGAGCUCAACACAGCACGGCAAAGUGGCUGUGGCCAGACUGUC showed a self-cleavage of 0.75.
For GGCAGAGCUCAACACAGCCUGGUAAAGUGGCUGUGGCUAGACAGCC, the self-cleavage was 0.
In the case of GGCAGAGCUCAACACAGCCUGGCAAAGUAGCUGUGGCUAUACUGCC, the self-cleavage is reported as 0.41.
GGCAGAGCUCAACACAGCCUGGCAAAGUGGCUGUGGCUUGACUGCU showed a self-cleavage of 0.07.
